PubChem BioAssay AID485344 (National Center for Advancing Translational Sciences (NCATS), 2010)
Hit rate of the full screen: of about 340,000 compounds, about 6,900 (2%) were called active. Cut-off read from the data, not from the text of the source: active = inhibition above about 30%; inactive = below that, where a call was filed. The list shows a part of the results, in another mix than the full data. The source gives no active or inactive call for entries shown without one.

Molecular target: D(2) dopamine receptor (Homo sapiens) (UniProt P14416)
UniProt P14416, sequence (P14416 whole entry, looked up): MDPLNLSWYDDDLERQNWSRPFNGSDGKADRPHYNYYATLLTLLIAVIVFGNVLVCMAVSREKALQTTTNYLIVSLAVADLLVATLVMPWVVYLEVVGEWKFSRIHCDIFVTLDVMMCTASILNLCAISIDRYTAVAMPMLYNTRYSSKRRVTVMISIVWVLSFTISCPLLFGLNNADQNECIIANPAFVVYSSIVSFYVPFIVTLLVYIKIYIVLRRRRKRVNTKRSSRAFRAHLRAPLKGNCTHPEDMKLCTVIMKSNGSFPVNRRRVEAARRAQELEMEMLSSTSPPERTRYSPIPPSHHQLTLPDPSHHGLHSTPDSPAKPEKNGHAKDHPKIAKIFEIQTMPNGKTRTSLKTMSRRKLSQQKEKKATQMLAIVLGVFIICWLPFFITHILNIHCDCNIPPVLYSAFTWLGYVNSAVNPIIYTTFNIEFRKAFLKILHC
Experiment: HTS Assay for Allosteric Antagonists of the Human D2 Dopamine Receptor: Primary Screen for Antagonists; note: 0% is about no effect
Conditions: HEK293 TREx D2 cells, calcium flux, dopamine EC80; at 10 µM; stronger effect = higher value
In short: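 Calcium flux kinetic readout in an inducible HEK293 TREx D2 line plated overnight at 30 C. After 180 s compound exposure, an EC80 dopamine challenge follows with another 180 s kinetic read to detect antagonism.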

Compound | inhibition
COCc1cc(C)nc(SCc2ccc(F)cc2)c1C#N | active: 41.6%
Cc1ccc(S(=O)(=O)c2nnn3c2nc(NCCc2ccccc2)c2sccc23)cc1 | 18.1%
O=C(NC1CCCC1)c1ccc2c(c1)N(Cc1ccccc1)C(=O)c1ccccc1S2 | 28.2%
CC1CCN(c2nc3ccc(C(=O)NCc4ccccc4Cl)cc3s2)CC1 | 20.4%
Cc1ccc(F)cc1NC(=O)Cn1c(C)cc(C)c(C#N)c1=O | 1.82%
COc1ccc(C2=C(N3CCN(c4cccc(C)c4)C(C)C3)c3ccccc3C2=O)cc1 (configuration not stated) | -8.27%
CCCCC12CN3CC(C)(CN(C1)C3c1ccc(O)c(OC)c1)C2=O (configuration not stated) | -3.05%
COc1ccc(Cn2cc(C(=O)c3ccc(C)c(C)c3)c(=O)c3ccccc32)cc1 | 1.45%
CN(C)S(=O)(=O)c1cccc(NC(=S)NCc2ccc3c(c2)OCO3)c1 | active: 51.6%
Cc1cccn2c(=O)c(C(=O)NCCc3ccccc3)cnc12 | 2.26%
CCOc1ccc(CCNC(=O)c2cc(C)nc3c2c(C)nn3-c2cccc(F)c2)cc1 | -4.99%
COc1ccc(CNCCC(c2ccc3c(c2)OCO3)c2ccccc2OC)cc1 (configuration not stated) | -17.6%
CCCN1C(=O)/C(=C/c2ccc(C)s2)NC1=S | active: 31.4%
COc1cccc(NC(=O)CSc2nccn2C2CCCC2)c1 | -11.8%
O=C(Cn1cc(S(=O)(=O)Cc2cccc(Cl)c2)c2ccccc21)Nc1ccccc1Cl | 12.7%
Cc1ccc(-n2nc3c(=O)n(CC(=O)NCCC(C)C)nc(C)c3c2C)cc1 | -3.81%
CC(CNC(=O)c1nnc(Cc2ccc(F)cc2)o1)c1ccccc1 (configuration not stated) | 0.381%
COc1cc2ncc(C(=O)c3ccc(C)cc3)c(N3CCCCC3)c2cc1OC | 16%
COCCCNC(=O)Cn1c(=O)nc(-c2ccccc2)c2ccccc21 | -12.7%
Cc1oc(-c2ccccc2Cl)nc1Cn1c(SCc2cccc(F)c2)nc2cccnc21 | 4.44%
Cc1ccc(-n2c(=O)[nH]c3cc(C(=O)NCc4ccccc4)ccc3c2=O)cc1 | 4.27%
Cc1ccc(CCNS(=O)(=O)c2ccc3c(c2)CC(C)N3C(=O)C2CCC2)cc1 (configuration not stated) | 1.86%
CC(=O)c1cccc(NC(=O)CC(c2ccc(C)cc2)N2Cc3ccccc3C2=O)c1 (configuration not stated) | 16.7%
Cc1nc(-c2ccccc2)sc1-c1ccc(SCC(=O)NCc2ccc(Cl)cc2)nn1 | -2.63%
Cc1cccc(OCC(=O)Nc2ccc(-c3nc4ccccc4o3)cc2)c1C | -1.61%

Compound | inhibition
CC(C)CNC(=O)N1[C@H](c2cccs2)[C@@H](C)C(=O)[C@@H](C)[C@@H]1c1cccs1 | 18.6%
CCn1c(=N)n(CCOc2ccc(Br)cc2)c2ccccc21 | -4.35%
COc1ccc(CC(=O)NCCc2csc(-c3cccc(C)c3)n2)cc1 | -16.4%
CC(C)OCCCNC(=O)Cn1ccc2cc(S(=O)(=O)N3CCCCCC3)ccc21 | -15%
COc1ccc(C)cc1NS(=O)(=O)c1c(C(=O)N2CCCCCC2)c(C)n(C)c1C | -3.97%
COc1ccc2cc(C(=O)NCc3ccc4c(c3)CCN4C(=O)c3ccc(F)cc3)[nH]c2c1 | 18.6%
O=C(COCc1cc(-c2cccs2)on1)N1CCN(c2cccc(Cl)c2)CC1 | -19.7%
COc1cc(C)cc2oc(=O)c(CC(=O)NCCc3ccc(Cl)cc3)c(C)c12 | 12.5%
O=C(CCn1c(=O)c2cccn2c2cccnc21)N1CCN(c2ccccc2F)CC1 | 8.98%
CCN(C(=O)Nc1cn(CC(C)C)c(=O)c2ccccc12)c1cc(C)ccc1C | -14.4%
COc1ccccc1CN1C(=O)CN(C2CCCCCC2)C(=O)C1c1ccc(F)cc1 (configuration not stated) | -16.9%
Cc1c(Cl)cccc1NC(=O)C1CCN(c2ncnc3c2nc2n3CCCCC2)CC1 | -0.346%
Cc1ccc2nc(Nc3ccc(C)c(F)c3)c3nncn3c2c1 | 7.35%
Cc1ccc(CNC(=O)CCn2cnc3ccccc3c2=O)cc1 | 2.27%
CCn1nc(C)c(CCN(C)C(=O)Nc2cc(OC)c(OC)c(OC)c2)c1C | 14.5%
Cc1ccc(N2CC(NC(=O)c3ccc(S(=O)(=O)N4CCOCC4)cc3)CC2=O)cc1 (configuration not stated) | -19.7%
CCOC(=O)c1cnn(-c2ccc(C(=O)Nc3cccc(C(C)=O)c3)cc2)c1N | 4.62%
CCOCCCNC(=O)CN1C(=O)COc2ccc(S(=O)(=O)N3CCCC3)cc21 | 7.83%
CCOC(=O)c1c(C)[nH]c(C)c1S(=O)(=O)N1CCCC(C(=O)NCc2ccc(Cl)cc2)C1 (configuration not stated) | 2.38%
COc1ccccc1Nc1cc(C(=O)NC2CCC(C)CC2)c2ccccc2n1 (configuration not stated) | 22.3%
Cc1oc(-c2ccc(Cl)cc2)nc1CSc1nc2ncccc2[nH]1 | 0.836%
O=C(Nc1ccc2oc(-c3ccncc3)nc2c1)c1ccccc1Cl | -12%
CCc1ccccc1Nc1nn2c(=O)c3ccc(C(=O)NCCCOC(C)C)cc3nc2s1 | -11.3%
COc1cccc(NC(=O)c2ccc(-c3nc(COc4ccccc4)c(C)o3)cc2)c1 | 1.55%
CCOc1ccc(NC(=O)CC2C(=O)N(c3ccc(Cl)cc3)C(=O)N2Cc2cccs2)cc1 (configuration not stated) | 1.89%

Compound | inhibition
O=C(OCc1cc(=O)n2nc(C3CCCCC3)sc2n1)c1ccc(F)cc1 | -5.98%
CCOc1ccc(-n2cc(-c3ccccc3)c3c(N4CCN(c5ccccc5OC)CC4)ncnc32)cc1 | 3.66%
CCOc1ccc(NC(=O)c2sc3nc4c(c(-c5ccc(OC)cc5)c3c2N)C(=O)CC(C)(C)C4)cc1 | -2.08%
COC(=O)c1c(NC(=O)/C(C#N)=C/c2ccccc2)sc2c1CCC2 | -7.09%
O=C(Nc1cccc(Cl)c1)c1ccc2c(c1)CCN2S(=O)(=O)c1ccccc1 | -14.6%
CCCCN(CC)C(=O)CSc1c2c(nc3ccc(Cl)cc13)CCCC2 | -4.13%
Cc1cccc(NC(=O)Cn2cc(C(=O)c3ccco3)c3ccccc32)c1 | -3.9%
Cc1ccc(CNC(=O)c2ccc(Cn3c(=O)c4ccccc4n(CC(=O)Nc4ccc(C)cc4)c3=O)cc2)cc1 | 0.496%
Cc1ccccc1OCCn1c(-c2ccc(Cl)cc2)nc2ccccc2c1=O | 5.43%
O=C(NC1(C(F)(F)F)C(=O)Nc2c1c(=O)[nH]c(=O)n2-c1ccc(Cl)cc1)c1ccccc1F (configuration not stated) | 11.1%
COc1ccc(Cn2cc(S(=O)(=O)c3ccc(Cl)cc3)c(=O)c3cc4c(cc32)OCO4)cc1 | 9.79%
COc1cc(OC)c(NC(=O)CCc2c(C)nc3ncnn3c2C)cc1Cl | 9.43%
COc1ccc(-c2nc(CSCC(=O)NCCc3ccccc3)c(C)o2)cc1 | -24.6%
COc1ccc(C(NC(=O)CNC(C)=O)C(=O)Nc2ccc(C(C)C)cc2)cc1 (configuration not stated) | active: 36.7%
COc1cccc(N2CCN(C(=O)c3cc4cc5cc(C)ccc5nc4s3)CC2)c1 | 14.5%
CN(Cc1ccccc1)c1ccc(-c2nc(-c3ccccn3)no2)cc1[N+](=O)[O-] | -1.04%
O=C(c1ccc(F)cc1)C1CCN(Cc2cn[nH]c2-c2ccccc2)CC1 | active: 56%
Cc1cccc(NC(=O)CCn2cnnn2)c1C | -11.6%
CCC(=O)N1c2ccccc2CC1C(=O)NCc1ccccc1Cl (configuration not stated) | -7.17%
O=C(CSCc1ccc(F)cc1)N1CCN(c2ccc(Cl)cc2)CC1 | -1.11%
Cc1ccccc1N1CCN(CCCCN2C(=O)C3CCCN3C2=O)CC1 (configuration not stated) | active: 58.9%
Clc1ccc(CN2CCC(CNc3ncnc4onc(-c5ccc(Cl)cc5)c34)CC2)cc1 | -6.49%
O=C(Cn1c(=O)n(-c2cccc(Cl)c2)c(=O)c2sc3ccccc3c21)NC1CCCCC1 | 0.898%
COc1ccc2cc(-c3nc(Cl)c4c5c(sc4n3)CC(C)CC5)c(=O)oc2c1 (configuration not stated) | 2.54%
Cc1ccc(OCC(=O)Nc2cccc(-c3nc4ccccc4o3)c2C)cc1C | 12.4%

Compound | inhibition
CNC(=O)C1CCC(Cn2c(=O)c3sccc3n(CC(=O)NCc3ccc(OC)cc3)c2=O)CC1 (configuration not stated) | 0.248%
COc1ccccc1NC(=O)c1c(NC(=O)COc2ccccc2)sc2c1CCCCC2 | -1.42%
O=C(c1ccc2c(c1)N(Cc1ccccc1F)C(=O)c1ccccc1S2(=O)=O)N1CCN(c2ccccc2F)CC1 | 2.69%
CCOc1ccc(C(=O)Nc2ccc3nn(-c4ccc(OC)c(Cl)c4)nc3c2)cc1 | -21.2%
CCN(CC)C(=O)c1sc2c(c1C)c(=O)n(CCc1ccccc1)c(=O)n2Cc1ccc(F)cc1Cl | 14.3%
Cc1cc2nc(-c3cccc(NC(=O)C(C)C)c3C)oc2cc1C | 6.73%
CCc1c(C)nc(SCc2nc(-c3ccccc3)no2)[nH]c1=O | 1.74%
O=C(c1cc(-c2ccccc2O)on1)N1CCCCC1 | -5.1%
COc1cc(OC)c(OC)cc1/C=C/c1nc2cc3ccccc3cc2c(=O)n1-c1ccc(F)c(Cl)c1 | -14.6%
O=C1Cc2cc(CCN3CCN(c4nsc5ccccc45)CC3)c(Cl)cc2N1 | active: 84.1%
COc1ccccc1CNC(=O)N[C@@H](Cc1ccccc1)C(=O)O | active: 37%
CCn1cc(S(=O)(=O)c2ccccc2)c(=O)c2cc(F)c(N3CCCC3)cc21 | 10.7%
Cc1cc(C)cc(NS(=O)(=O)c2ccc3[nH]cc(C(=O)NC4CCCCC4)c(=O)c3c2)c1 | 2.67%
OCCC1CN(Cc2cccc(-n3cccn3)c2)CCN1Cc1ccccc1 (configuration not stated) | active: 57.8%
O=C(O)CC(NC(=O)C12CC3CC(CC(C3)C1)C2)c1cc([N+](=O)[O-])ccc1Cl (configuration not stated) | active: 72.3%
Cc1ccc(Cl)cc1NC(=O)Cn1c(=O)n(Cc2ccccc2)c(=O)c2oc3ccccc3c21 | -1.21%
Cc1ccc(OCC(=O)Nc2cccc(OCc3cc(=O)n4cccc(C)c4n3)c2)cc1C | 8.38%
CCn1cc2c(n1)-c1c(oc(C(=O)Nc3cccc(C)c3C)c1C)CC2 | 11.3%
Cc1ccc(CCNC(=O)CCCn2c(=O)c3ccccc3n(Cc3ccccc3C#N)c2=O)cc1 | -17.3%
CN(C)S(=O)(=O)N1CCc2ccc(NC(=O)C3CCCO3)cc2C1 (configuration not stated) | active: 31.3%
N#Cc1c(C(F)(F)F)cc(-c2cccs2)nc1SCC(=O)Nc1ccccc1F | -2.13%
Cc1cc(C)cc(NC(=O)CSc2oc(-c3ccccc3)nc2S(=O)(=O)c2ccccc2)c1 | -4.55%
